{"source": "PubChem BioAssay AID588342", "about": "(National Center for Advancing Translational Sciences (NCATS), 2011)", "note": "The whole screen tested about 360,000 compounds, of which about 25,000 (6.9%) were called active. The shares of active, inactive and inconclusive entries below differ from those in the screen. Calls come from the whole dose curve; as a rule, active = well fitted inhibition curve with a large enough effect; inconclusive = small, poorly fitted or top-dose-only effect; inactive = flat fitted curve, though single readings scatter. Where the call is inconclusive, the potency comes from a doubtful curve fit. Potency is the fitted concentration of half-maximal effect; tags give direction and shape of the fitted curve."}
{"target": "Luciferin 4-monooxygenase (Photinus pyralis) (UniProt P08659)", "sequence (P08659 whole entry, looked up)": "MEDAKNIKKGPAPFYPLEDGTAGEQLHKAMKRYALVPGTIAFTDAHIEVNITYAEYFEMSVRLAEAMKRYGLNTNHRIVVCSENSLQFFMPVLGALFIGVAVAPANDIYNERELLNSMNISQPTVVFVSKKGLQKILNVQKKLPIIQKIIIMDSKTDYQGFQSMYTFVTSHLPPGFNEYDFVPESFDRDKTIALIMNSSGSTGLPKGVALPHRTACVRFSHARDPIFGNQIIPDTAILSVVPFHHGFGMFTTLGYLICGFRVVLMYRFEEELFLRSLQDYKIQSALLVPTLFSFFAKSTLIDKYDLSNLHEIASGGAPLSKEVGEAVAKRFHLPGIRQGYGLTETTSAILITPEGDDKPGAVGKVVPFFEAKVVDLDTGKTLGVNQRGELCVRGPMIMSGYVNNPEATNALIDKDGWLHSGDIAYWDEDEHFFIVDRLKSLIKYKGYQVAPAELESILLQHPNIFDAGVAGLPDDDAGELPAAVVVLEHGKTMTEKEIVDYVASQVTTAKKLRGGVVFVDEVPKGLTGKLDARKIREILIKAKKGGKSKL", "test": "qHTS profiling assay for firefly luciferase inhibitor/activator using purifed enzyme and Km concentrations of substrates (counterscreen for miR-21 project); note: nearly all actives have a fitted effect of over 55% in size", "details": "purified FLuc, luminescence inhibition; series mostly up to 57.5 µM", "how_it_was_run": "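Purified P. pyralis luciferase, 10 nM final, with Km-level 10 uM D-luciferin and 10 uM ATP in 50 mM Tris acetate pH 7.5, 10 mM Mg acetate, 0.01% Tween-20, 0.05% BSA; 6-point qHTS titration about 60 µM downward; luminescence read.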"}
{"smiles": "COc1ccc(OC(=O)CCc2c[nH]c3ccccc23)cc1", "Potency": "inconclusive: 37.9 µM [inhibitor, partial curve, poor fit]"}
{"smiles": "CCN(CC)S(=O)(=O)c1ccc2c(c1)N(CC(=O)Nc1c(C)cc(C)cc1C)C(=O)CS2", "Potency": "inactive"}
{"smiles": "Cn1c(-c2ccc3nc(N)sc3c2)nc2cc(N)ccc21", "Potency": "active: 21.3 µM"}
{"smiles": "Cc1cc(C)cc(NC(=O)CSc2nnc(CNC(=O)c3c(F)cccc3Cl)o2)c1", "Potency": "inconclusive: 37.9 µM [inhibitor, partial curve, poor fit]"}
{"smiles": "COc1cccc(-c2nc(N3CCN(C)CC3)c3ccccc3n2)c1O", "Potency": "inconclusive: 30.1 µM [inhibitor, partial curve, poor fit]"}
{"smiles": "CCN(CC)C(=O)CSc1ncnc2c1nnn2-c1ccc(OC)cc1", "Potency": "inconclusive: 7.57 µM [inhibitor, full curve]"}
{"smiles": "O=C(NCCOc1ccccc1)C(=O)c1c[nH]c2ccccc12", "Potency": "active: 26.9 µM"}
{"smiles": "COc1ccc(OCC(O)COc2ccc(C(=O)O)cc2)cc1", "note": "(stereo unspecified)", "Potency": "active: 15.1 µM"}
{"smiles": "CC(=O)N1CCCc2ccc(NC(=O)c3ccc(C(F)(F)F)cc3)cc21", "Potency": "inconclusive: 23.9 µM [inhibitor, partial curve]"}
{"smiles": "Cc1ccc(NC(=O)CSc2nnc(COc3ccccc3C)o2)cc1", "Potency": "inconclusive: 21.3 µM [inhibitor, partial curve, poor fit]"}
{"smiles": "Cc1ccccc1-c1noc(-c2ccc(N3CCCC3)c([N+](=O)[O-])c2)n1", "Potency": "active: 13.5 µM"}
{"smiles": "Cn1nccc1C(=O)Nc1ccccc1C(=O)O", "Potency": "inconclusive: 30.1 µM [inhibitor, partial curve]"}
{"smiles": "CCOc1ccc(N(C(=O)c2ccc(OC)cc2)S(=O)(=O)c2ccc3c(c2)n(C)c(=O)n3C)cc1", "Potency": "inactive"}
{"smiles": "Nc1[nH]n(-c2ccccc2)c(=O)c1N=Nc1ccccc1[N+](=O)[O-]", "Potency": "inconclusive: 1.07 µM [inhibitor, full curve]"}
{"smiles": "COc1ccccc1COc1ccc2c(C)c(CCC(=O)O)c(=O)oc2c1C", "Potency": "active: 23.9 µM"}
{"smiles": "O=C(NNC1=Nc2ccccc2SC1)c1ccccc1F", "Potency": "inconclusive: 26.9 µM [inhibitor, single point]"}
{"smiles": "COc1ccc(-c2ccccc2)cc1NCc1ccccc1C", "Potency": "inconclusive: 37.9 µM [inhibitor, single point]"}
{"smiles": "O=C(COC(=O)c1ccco1)Nc1ccc2c(c1)OCO2", "Potency": "inconclusive: 21.3 µM [inhibitor, single point]"}
{"smiles": "COc1cccc(NC(=O)c2cn(C)c(=O)c3cc(OC)c(OC)cc23)c1", "Potency": "inactive"}
{"smiles": "Cc1[nH]n(-c2ccccc2)c(=O)c1/C=N/N(C)c1ccccc1", "Potency": "inconclusive: 16.9 µM [inhibitor, partial curve]"}
{"smiles": "COCCNC(=O)c1ccccc1-c1nc(-c2ccccc2Cl)no1", "Potency": "active: 12 µM"}
{"smiles": "COc1ccc2c(c1)Cc1sc(NC(=O)c3ccc(Cl)cc3)nc1-2", "Potency": "inactive"}
{"smiles": "CC1CCN(CC(=O)Nc2ccc(Br)cc2[N+](=O)[O-])CC1", "Potency": "inconclusive: 37.9 µM [inhibitor, single point]"}
{"smiles": "CC1=NOC(=O)/C1=C/c1ccc2c(c1)OCO2", "Potency": "inconclusive: 15.1 µM [inhibitor, partial curve]"}
{"smiles": "O=C1S/C(=C\\c2ccc(N3CCOCC3)o2)C(=O)N1Cc1c(F)cccc1Cl", "Potency": "inconclusive: 12 µM [inhibitor, partial curve]"}
{"smiles": "CN(CC(=O)Nc1ccc(F)cc1)C(=O)c1cc(-c2ccco2)nc2ccccc12", "Potency": "inconclusive: 21.3 µM [inhibitor, single point]"}
{"smiles": "Nn1c(SCc2ccccc2)nnc1-c1ccco1", "Potency": "inactive"}
{"smiles": "COc1ccc(-c2cc(CNC(=O)CCl)on2)cc1", "Potency": "inconclusive: 33.8 µM [inhibitor, partial curve, poor fit]"}
{"smiles": "COc1cccc(-n2nnc3c(=O)n(Cc4ccccc4F)cnc32)c1", "Potency": "inconclusive: 37.9 µM [inhibitor, single point]"}
{"smiles": "N#Cc1ccccc1CSc1nnc(-c2ccncc2)o1", "Potency": "inconclusive: 19 µM [inhibitor, partial curve]"}
{"smiles": "CCC(C)(C)NC(=S)Nc1ccc(-c2nc3ccc(C)cc3s2)cc1", "Potency": "active: 2.69 µM"}
{"smiles": "O=C1CN(C(=O)CSc2ccc(-c3ccc(F)cc3)nn2)c2ccccc2N1", "Potency": "inconclusive: 26.9 µM [inhibitor, single point]"}
{"smiles": "CCCCCCn1c(-c2cccs2)n[nH]c1=S", "Potency": "inconclusive: 19 µM [inhibitor, single point]"}
{"smiles": "CCOC(=O)c1ccc(NC(=O)c2ccccc2C)cc1", "Potency": "inconclusive: 16.9 µM [inhibitor, partial curve, poor fit]"}
{"smiles": "C=CCOc1cccc(NC(=O)c2ccccc2SC)c1", "Potency": "inconclusive: 23.9 µM [inhibitor, single point]"}
{"smiles": "COc1ccccc1Cc1nc2ccccc2nc1SCC(=O)N1CCCc2ccccc21", "Potency": "inactive"}
{"smiles": "CC(=O)c1csc(-c2ccccc2)n1", "Potency": "inconclusive: 23.9 µM [inhibitor, partial curve, poor fit]"}
{"smiles": "Cc1ccccc1-c1noc(-c2cc(C(C)C)[nH]n2)n1", "Potency": "active: 10.7 µM"}
{"smiles": "Cc1cccc(-n2ncc(C(=O)Nc3ccc4c(c3)OCO4)c2C2CCN(C(=O)OC(C)(C)C)CC2)c1", "Potency": "inconclusive: 21.3 µM [inhibitor, partial curve, poor fit]"}
{"smiles": "COc1ccc(Cl)cc1NC(=O)c1c(NCc2cccs2)sc2c1CCCC2", "Potency": "inactive"}
{"smiles": "Oc1ccc(NCc2ccccc2OCc2ccccc2Cl)cc1", "Potency": "inconclusive: 30.1 µM [inhibitor, partial curve, poor fit]"}
{"smiles": "Cc1cc2oc(C(=O)Nc3cccnc3)c(C)c2cc1C", "Potency": "inconclusive: 2.13 µM [inhibitor, full curve]"}
{"smiles": "C/C(=N\\NC(=O)c1ccc(Br)cc1)c1ccccc1", "Potency": "active: 3.38 µM"}
{"smiles": "CCOc1ccc(OCc2ccc(C(=O)N3CCOCC3)cc2)cc1", "Potency": "inconclusive: 19 µM [inhibitor, single point]"}
{"smiles": "CSc1nc(-c2ccccc2)ccc1C(N)=O", "Potency": "inconclusive: 10.7 µM [inhibitor, partial curve, poor fit]"}
{"smiles": "CCc1ccc(/C=C2\\Oc3cc(OS(C)(=O)=O)ccc3C2=O)cc1", "Potency": "inconclusive: 30.1 µM [inhibitor, partial curve, poor fit]"}
